# Results: patent publication US20120058977A1, “PHARMACEUTICAL COMPOSITIONS AND METHODS FOR TREATING TUBERCULOSIS” (Rijksuniversiteit Groningen, priority 2009, published 2012)
# How the values were obtained:
# R. erythropolis RG8-37 = test: Growth inhibition screening assay, R. erythropolis RG8-37 (glucose mineral agar or liquid medium); assay type: cell-based, Rhodococcus erythropolis; conditions: for growth inhibition in mutant strain RG8-37 compared with SQ1: mineral glucose agar plates, 0.01% test compound
# [1] = tested on: wild type Rhodococcus erythropolis SQ1; test: Growth inhibition screening assay, wild type R. erythropolis SQ1 (glucose mineral agar or liquid medium); conditions: for growth inhibition of wild type SQ1 on mineral glucose agar plates: 0.01% (w/v or v/v) test compound; for inhibitory activity / growth inhibition in wild type SQ1 (summary statement): medium format and concentration not stated at the place
# [2] = tested on: wild type M. smegmatis mc^2155; test: Growth inhibition of wild type M. smegmatis mc^2155 (glucose mineral liquid cultures or agar plates); conditions: for growth inhibition of wild type mc^2155 in glucose mineral liquid cultures: 0.01% test compound, compared with R. erythropolis SQ1
# [3] = tested on: 3-ketosteroid 9α-hydroxylase (KSH) activity; conditions: AD 0.5 g/L; strain RG8-37 in mineral glucose medium
# [4] = tested on: gene inactivated mutants of R. erythropolis RG8-37; test: Growth of gene inactivated mutants of RG8-37 on MM glucose agar medium with HIL; conditions: MM glucose agar medium with HIL 100 mg/L
compound,measurement,setting,value
C[C@]12CCCC[C@@H]1CCC2=O [compound I],growth inhibition in mutant strain RG8-37 compared with SQ1,R. erythropolis RG8-37,even more pronounced
same,growth inhibition of wild type SQ1 on mineral glucose agar plates,[1],Growth inhibition
same,inhibitory activity / growth inhibition in wild type SQ1 (summary statement),[1],show inhibitory activity
"C[C@]12CCCC[C@@H]1CC[C@@H]2O (racemic) [racemic compound II, rac-(1β,3aα,7aβ)-7a-methyl-1H-octahydroinden-1-ol]",growth inhibition of wild type mc^2155 in glucose mineral liquid cultures,[2],"also inhibited by these compounds, but to a much lesser extent"
same,growth inhibition in mutant strain RG8-37 compared with SQ1,R. erythropolis RG8-37,even more pronounced
same,inhibition of 3-ketosteroid 9α-hydroxylase activity,[3],not inhibited
same,growth inhibition of wild type SQ1 on mineral glucose agar plates,[1],Growth inhibition
same,growth inhibition of wild type SQ1 on mineral glucose agar plates,[1]; listed as Racemic compound II,strongest inhibition of growth
same,growth inhibition of wild type SQ1 in glucose mineral liquid cultures,[1]; 0.01% test compound,strong inhibitory effect
"C[C@]12CCCC[C@@H]1CC[C@@H]2O [(+)-compound II, (+)-(1S,3aR,7aS)-7a-methyl-1H-octahydroinden-1-ol]",growth inhibition of wild type SQ1 in glucose mineral liquid cultures,[1]; 0.01% test compound,inhibited growth comparable to racemic compound II
same,inhibitory activity / growth inhibition in wild type SQ1 (summary statement),[1],most effective growth inhibition
same,inhibitory activity / growth inhibition in wild type SQ1 (summary statement),"[1]; listed as (+)-(1S,3aR,7aS)-7a-methyl-1H-octahydroinden-1-ol",active enantiomer
same,inhibitory activity / growth inhibition in wild type SQ1 (summary statement),"[1]; listed as (+)-(1S,3aR,7aS)-enantiomer",active constituent of racemic compound II
same,inhibitory activity / growth inhibition in wild type SQ1 (summary statement),[1]; listed as (+)-II,show inhibitory activity
"3aα-H-4α(3′-propionic acid)-5α-hydroxy-7aβ-methylhexahydro-1-indanone-δ-lactone [HIL, reference compound]",growth of wild type strain on glucose mineral agar plates,"[2]; HIL 200 mg/l, 37° C., after 3 days",confluently grown
same,growth of RG8-37 on glucose agar plates,"R. erythropolis RG8-37; HIL 0.01% w/v, after 3 days of incubation",no growth
same,growth of RG8-37 in liquid glucose mineral media,"R. erythropolis RG8-37; HIL 100 mg/l, over a period of 96 hours",unable to grow
same,growth of strains RG45 (fadE31) and RG46 (echA13),[4],still inhibited
same,time in which wild type SQ1 grew to stationary phase,[1]; liquid glucose mineral media containing HIL 100 mg/l,≤ 72 h
same,inhibitory activity / growth inhibition in wild type SQ1 (summary statement),[1],does not occur
C[C@]12CCCC[C@@H]1CCC2=O (racemic) [compound I],inhibition of 3-ketosteroid 9α-hydroxylase activity,[3],not inhibited
CC(=O)Oc1ccc(C)c(CC[C@@H]2C(=O)CC[C@]3(C)C(=O)CC[C@@H]23)c1 [compound III],growth inhibition of wild type mc^2155 in glucose mineral liquid cultures,[2],"also inhibited by these compounds, but to a much lesser extent"
same,growth inhibition in mutant strain RG8-37 compared with SQ1,R. erythropolis RG8-37,even more pronounced
same,growth inhibition of wild type SQ1 on mineral glucose agar plates,[1],Growth inhibition
same,growth inhibition of wild type SQ1 in glucose mineral liquid cultures,[1]; 0.01% test compound,strong inhibitory effect
same,inhibitory activity / growth inhibition in wild type SQ1 (summary statement),[1],show inhibitory activity
"C[C@@]12CCCC[C@H]1CC[C@H]2O [(−)-compound II, (−)-(1R,3aS,7aR) 7a-methyl-1H-octahydroinden-1-ol]",growth inhibition of wild type SQ1 in glucose mineral liquid cultures,[1]; 0.01% test compound,did not inhibit the growth
same,growth yield of wild type SQ1 in glucose mineral liquid cultures,[1]; 0.01% test compound,lower growth yield
same,inhibitory activity / growth inhibition in wild type SQ1 (summary statement),"[1]; listed as (−)-(1R,3aS,7aR) 7a-methyl-1H-octahydroinden-1-ol",less active enantiomer
same,inhibitory activity / growth inhibition in wild type SQ1 (summary statement),[1]; listed as (−)-II,show inhibitory activity
